Several values for one entry are separate records, joined by “and”; a condition that tells them apart may be missing. Equal values may be shown once. Hit rate of the full screen: of about 290,000 compounds, about 2,100 (0.72%) were called active. This list was built around the results that the source calls inconclusive (neither active nor inactive); the mix of calls is not that of the screen. Calls come from the whole dose curve; as a rule, active = well fitted inhibition curve with a large enough effect; inconclusive = small, poorly fitted or top-dose-only effect, or effect the other way; inactive = flat fitted curve, though single readings scatter. A potency beside an inconclusive call is a rough fit, not a confirmed value.
Biological target: Fructose-bisphosphate aldolase (Giardia intestinalis (strain ATCC 50803 / WB clone C6)) (UniProt A8B2U2)
UniProt A8B2U2, sequence (A8B2U2 whole entry, looked up): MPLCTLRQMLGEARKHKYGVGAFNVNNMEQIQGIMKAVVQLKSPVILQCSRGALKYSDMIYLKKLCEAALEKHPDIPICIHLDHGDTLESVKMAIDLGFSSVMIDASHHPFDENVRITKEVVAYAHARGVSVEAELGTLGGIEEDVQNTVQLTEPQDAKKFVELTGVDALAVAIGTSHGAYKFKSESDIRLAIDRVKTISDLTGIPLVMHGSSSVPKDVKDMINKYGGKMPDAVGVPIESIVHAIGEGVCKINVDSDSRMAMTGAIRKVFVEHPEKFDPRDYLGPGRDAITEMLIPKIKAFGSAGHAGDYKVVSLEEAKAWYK
Experiment: qHTS Assay for Inhibitors of Fructose-1,6-bisphosphate Aldolase from Giardia Lamblia; note: nearly all actives have a fitted effect of over 55% in size
Details: purified Giardia FBPA; series mostly up to 59.6 µM
In short: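 40 nM FBPA preincubated 10 min at RT with compound (up to 57.5 uM final), then substrate plus GAPDH/TPI/NAD/arsenate coupling and diaphorase/resazurin added. Fluorescence read after 20 min at RT, 525/598 nm.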
Potency is the fitted concentration of half-maximal effect; tags give direction and shape of the fitted curve.

**Q.** How did the Potency turn out when `CCOCCCNC(=O)c1c(N)n(-c2ccc3c(c2)OCO3)c2nc3ccccc3nc12` was run?
**A.** inconclusive: 7.06 µM [inhibitor, partial curve]

**Q.** `O=C(O)c1ccccc1-c1c2cc(Br)c(=O)cc-2oc2[c]([Hg])c(O)c(Br)cc12` was tested. Which Potency did it give?
**A.** active: 22.3 µM

**Q.** How did the Potency turn out when `Fc1ccc(N2CCN(C3CCC(c4ccccc4)CC3)CC2)cc1` (stereo not given) was run?
**A.** inconclusive: 28.2 µM [inhibitor, single point]

**Q.** `COc1ccc(OC)c(CN2CCC(Cc3ccccc3)CC2)c1` was tested. Which Potency did it give?
**A.** inconclusive: 20 µM [inhibitor, partial curve]

**Q.** How did the Potency turn out when `O=C(CCl)N1c2ccccc2OCC1c1ccccc1` (stereo not given) was run?
**A.** inconclusive: 31.5 µM [inhibitor, single point]

**Q.** With `O=C1/C(=C/C=C/c2ccco2)SC(=S)N1NS(=O)(=O)c1ccccc1` as the compound, how does the Potency read?
**A.** inconclusive: 19.9 µM [inhibitor, partial curve]

**Q.** `COc1ccccc1NC(=O)Nc1cccc(C)n1` was tested. Which Potency did it give?
**A.** inactive

**Q.** `CC(=O)c1cccc(OCC(O)CN2CCN(S(=O)(=O)c3c(F)cccc3F)CC2)c1` (stereo not given) was tested. Which Potency did it give?
**A.** inconclusive: 17.8 µM [inhibitor, partial curve]

**Q.** Which Potency does the source give for `CC1CCC(NCC(=O)Nc2cccc(S(N)(=O)=O)c2)CC1` (stereo not given) here?
**A.** inconclusive: 17.7 µM [inhibitor, partial curve]

**Q.** For `CC(C)(C)c1nc2c(C#N)c(-c3ccc(Cl)cc3)ccn2n1`, which Potency is on record?
**A.** inconclusive: 15.8 µM [inhibitor, partial curve]

**Q.** `COC(=O)CCC(=O)OC1(C)C(=O)C=C2C=C3CCCN3C=C2C1=O` (stereo not given) was tested. Which Potency did it give?
**A.** inconclusive: 500 nM [inhibitor, full curve] and inconclusive: 998 nM [inhibitor, single point]

**Q.** How did the Potency turn out when `Oc1c(CN2CCCCC2)cc(Br)c2cccnc12` was run?
**A.** inconclusive: 19.9 µM [inhibitor, partial curve]

**Q.** With `COc1cc(/C=N/N=C/c2cc(OC)c(O)c(OC)c2)cc(OC)c1O` as the compound, how does the Potency read?
**A.** inactive

**Q.** `COc1ccc(C(=O)C2C3C4COC(O4)C(=O)C3C3C=Cc4ccccc4N32)c(OC)c1` (stereo not given) was tested. Which Potency did it give?
**A.** inconclusive: 25.1 µM [inhibitor, partial curve]

**Q.** How did the Potency turn out when `C/C(=C\C(=O)c1ccc(C)o1)Nc1ccc(C(=O)O)cc1C` was run?
**A.** inconclusive: 19.9 µM [inhibitor, partial curve]

**Q.** With `O=C(CC(Sc1ccccc1)c1cccs1)c1ccco1` (stereo not given) as the compound, how does the Potency read?
**A.** inactive

**Q.** For `CCOC(=O)c1c(NC(=O)c2ccncc2)sc(C)c1C`, which Potency is on record?
**A.** inactive

**Q.** With `O=C(O)C(Cc1cn[nH]n1)=NO` as the compound, how does the Potency read?
**A.** inconclusive: 11.2 µM [inhibitor, partial curve]

**Q.** With `O=C(Oc1ccc2c(c1)OCC2=O)c1ccc(Cl)cc1` as the compound, how does the Potency read?
**A.** inactive

**Q.** Which Potency does the source give for `Cc1cc(C)nc(SCc2nnc(SCC(=O)Nc3ccc(C)c(C)c3)n2Cc2ccco2)n1` here?
**A.** inactive

**Q.** For `COc1ccccc1OCC(=O)NNC(=O)c1cnccn1`, which Potency is on record?
**A.** active: 15.8 µM

**Q.** How did the Potency turn out when `O=C(Nc1ccc(S(=O)(=O)Nc2cnc3ccccc3n2)cc1)c1ccc([N+](=O)[O-])cc1Cl` was run?
**A.** inactive

**Q.** How did the Potency turn out when `C[N+](C)(CCCCCC[N+](C)(C)CCCN1C(=O)c2cccc3cccc(c23)C1=O)CCCN1C(=O)c2cccc3cccc(c23)C1=O` was run?
**A.** inconclusive: 17.7 µM [inhibitor, single point]

**Q.** `O=C(N[C@@H](Cc1ccccc1)C(=O)OCc1ccccc1)c1nc[nH]c1C(=O)NCc1ccccc1` was tested. Which Potency did it give?
**A.** inconclusive: 15.8 µM [inhibitor, partial curve]

**Q.** How did the Potency turn out when `O=C1c2ccccc2C(Nc2ccc3c(c2)OCO3)N1Cc1ccc2c(c1)OCO2` (stereo not given) was run?
**A.** inconclusive: 14.1 µM [inhibitor, partial curve]

**Q.** How did the Potency turn out when `Cc1onc(C(=O)Nc2c(C)n(C)n(-c3ccccc3)c2=O)c1[N+](=O)[O-]` was run?
**A.** inconclusive: 15.8 µM [inhibitor, partial curve]

**Q.** How did the Potency turn out when `CCOc1ccccc1NC(=O)C(CC)Sc1nc2ccncc2[nH]1` (stereo not given) was run?
**A.** active: 14.1 µM

**Q.** Which Potency does the source give for `COC1=C(N2CCOCC2)C(=O)c2ccccc2C1=O` here?
**A.** inconclusive: 1.12 µM [inhibitor, full curve]

**Q.** `CN(Cc1ccccc1)C(=O)CCS(=O)(=O)c1ccc2c(c1)n(C)c(=O)c(=O)n2C` was tested. Which Potency did it give?
**A.** inactive

**Q.** With `Cc1nc2nc(C)c(NS(=O)(=O)c3ccc(C(C)(C)C)cc3)c(=O)n2[nH]1` as the compound, how does the Potency read?
**A.** inconclusive: 39.8 µM [inhibitor, single point]

**Q.** How did the Potency turn out when `NS(=O)(=O)c1ccc(NC(=O)Nc2ccc(S(N)(=O)=O)cc2)cc1` was run?
**A.** inactive

**Q.** `CC(=O)Nc1c2c(nn1-c1ccccc1C)CSC2` was tested. Which Potency did it give?
**A.** inconclusive: 8.91 µM [inhibitor, partial curve]

**Q.** `C=C(C)CC(C)(C)C` was tested. Which Potency did it give?
**A.** inactive

**Q.** For `COc1cc2[nH]c(Cl)c([N+](=O)[O-])c2cc1OC`, which Potency is on record?
**A.** active: 5 µM

**Q.** With `CCOc1cc(Br)cc(/C=N/NC(=O)c2cccnc2)c1O` as the compound, how does the Potency read?
**A.** inconclusive: 39.8 µM [activator, single point]

**Q.** For `CC1(C)SC2C(N3C(=O)C(c4ccccc4)NC3(C)C)C(=O)N2C1C(=O)O` (stereo not given), which Potency is on record?
**A.** inconclusive: 14.1 µM [inhibitor, partial curve]

**Q.** `S=C1NCN(CCc2ccccc2)CN1Cc1ccccc1` was tested. Which Potency did it give?
**A.** inactive

**Q.** Which Potency does the source give for `CNC(=O)c1ccc(S(=O)(=O)c2ccc(Cl)cc2)c(NC(C)=O)c1` here?
**A.** inactive

**Q.** How did the Potency turn out when `O=C1c2ccccc2C(=O)N1CCCCSc1nnc2ccccn12` was run?
**A.** inactive

**Q.** `COc1ccc(S(=O)(=O)N2CCN(C3CCCC(C)C3)CC2)cc1` (stereo not given) was tested. Which Potency did it give?
**A.** inconclusive: 15.8 µM [inhibitor, partial curve]

**Q.** `CCc1ccc2[nH]c(=O)c(C(c3nnnn3CCOC)N3CCN(c4ccccc4F)CC3)cc2c1` (stereo not given) was tested. Which Potency did it give?
**A.** inconclusive: 19.9 µM [inhibitor, partial curve]

**Q.** Which Potency does the source give for `O=C(O)c1ccc(OCCn2ccnc2)cc1` here?
**A.** inconclusive: 17.7 µM [inhibitor, partial curve]

**Q.** Which Potency does the source give for `Cc1cc(C)nc(N/N=C/c2ccc(Cl)cc2)n1` here?
**A.** active: 11.2 µM

**Q.** For `COc1cccc(-c2nc3ccc(N4CCN(C)CC4)cc3[nH]2)c1`, which Potency is on record?
**A.** inconclusive: 17.7 µM [inhibitor, single point]

**Q.** With `CCN(CC)C(=O)CC(c1ccc2c(c1)OCO2)c1c(O)cc(OC)cc1OC` (stereo not given) as the compound, how does the Potency read?
**A.** inconclusive: 15.8 µM [inhibitor, partial curve] and inconclusive: 17.7 µM [inhibitor, partial curve]

From PubChem BioAssay AID2451 (National Center for Advancing Translational Sciences (NCATS), 2010)
